The other results are listed elsewhere or left out.
test system: T1, C. trachomatis L2/434/Bu expressing GFP (CTL2-GFP); design: species or system HeLa; C. trachomatis total inclusion area by high-content imaging, normalised to DMSO; conditions: total inclusion area; 28.5 h, 10 µM; inhibitor
T1 construct: L2/434/Bu GFP intracellular growth in HeLa cells
In short: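 Post-fluorescence-read fixation, DNA staining with Hoechst and high-content imaging; GFP inclusion area and number per well, and nuclei counts, used as proxies for bacterial growth and host viability.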

Structure (SMILES) | % of control remaining
Cc1ccc(CN2C(=O)CSC2c2cn(-c3ccccc3)nc2-c2ccccc2)cc1 (stereo not shown) [CBK263678] | 56.9147
O=C(Nc1ccccc1-c1nc2ccccc2s1)c1sc2cc(Cl)ccc2c1Cl [CBK268642] | 111.324
CC(=O)NC(c1ccccn1)C1CCCN(C(=O)C2CC2)C1 (stereo not shown) [CBK285040] | 82.19
Cc1sc2nc(C)n(C3CCNCC3)c(=O)c2c1C [CBK282421] | 90.3361
Cc1nc(CNc2ccc3nnc(C(F)(F)F)n3n2)cs1 [CBK305674] | 37.723
Cc1nc(SCC(=O)NC(C)c2cccnc2)oc1C (stereo not shown) [CBK282198] | 93.9712
O=C(CN1CCC[C@@H]1CN1CCCC1)Nc1ncccn1 [CBK149107] | 104.114
O=C(CC1CCN(C(=O)c2ccc3nsnc3c2)CC1)N1CCN(c2ccccc2)CC1 [CBK286266] | 115.824
COc1ccccc1N1CCN(c2cc(N3CCNCC3)ccc2[N+](=O)[O-])CC1 [CBK293931] | 88.9018
CC(=O)Nc1ccc(S(=O)(=O)NCC#N)cc1Cl [CBK045102] | 90.122
Cc1ccc(OCC(=O)N2CCN(S(=O)(=O)c3ccccc3[N+](=O)[O-])CC2)cc1 [CBK264260] | 70.4576
O=[N+]([O-])c1ccc(N2CCCCC2)s1 [CBK016566] | 98.8394
CC(NC(=O)c1ccccc1Cn1cccn1)c1ccccn1 (stereo not shown) [CBK281374] | 100.85
CN(C)c1ccc(CC(=O)Nc2cnc(-c3ccc(F)c(Cl)c3)c(-c3ccco3)n2)cc1 [CBK037581] | 124.289
Cc1cc2ccccc2n2c(=O)n(CC(=O)N(C(C)C)C(C)C)nc12 [CBK283885] | 94.8985
Cc1nnc(NS(=O)(=O)c2ccc(OC(F)(F)F)cc2)s1 [CBK026673] | 102.828
COc1ccc(C(=O)C2=C(O)C(=O)N(Cc3cccnc3)C2c2cccc([N+](=O)[O-])c2)cc1 (stereo not shown) [CBK264661] | 102.864
Cc1ccccc1C(NC(=O)C1CCN(C(=O)NCc2ccccc2)CC1)c1ncccc1C (stereo not shown) [CBK060398] | 99.8585
CC(C)c1ccc(NC(=O)NC(=O)C2CCN(CCOc3ccc4ccccc4c3)CC2)c(C(C)C)c1 [CBK034883] | 95.5403
O=C(N/N=C\c1ccc(OCc2ccccc2)cc1)C1COc2cc3ccccc3cc2O1 (stereo not shown) [CBK262764] | 110.825
CCOC(=O)N1CCC(NS(=O)(=O)/C=C/c2ccccc2)CC1 [CBK045458] | 94.1592
COc1ccc([C@@H]2CCN(C(=O)c3cc(F)cc(F)c3)C[C@H]2O)cc1 [CBK283757] | 72.4862
FC(F)CN1CCN(Cc2ccc(Oc3cnccn3)cc2)CC1 [CBK306399] | 37.4065
CC(C(=O)Nc1ccc(S(N)(=O)=O)cc1)N(C)Cc1ccccc1F (stereo not shown) [CBK305840] | 38.8617
CCCOCCCNS(=O)(=O)c1ccc(C(C)(C)CC)cc1 [CBK044821] | 89.6224
Cc1ccc(-c2nnc(S)n2/N=C\c2ccccc2OCC(=O)O)cc1 [CBK264408] | 95.8297
COC[C@H]1CCCN1C(=O)[C@@H](C)C1CC[C@@]2(C)CC[C@H](NC(C)=O)[C@@H](C)[C@@H]2[C@H]1O (stereo partly shown) [CBK289438] | 119.004

Structure (SMILES) | % of control remaining
O=C(c1ccc(-n2cccn2)nc1)N1CCN(c2ccccc2O)CC1 [CBK297794] | 84.0916
O=C(Nc1ccc(F)cc1)c1ccccc1NS(=O)(=O)c1ccc(C(F)(F)F)cc1[N+](=O)[O-] [CBK045439] | 84.9714
Nc1nc(OCCN2CCCC2=O)cnc1-c1cc(Cl)cc(Cl)c1 [CBK145199] | 110.069
COc1ccc(CCCC(=O)N2CCC(c3c(C(N)=O)sc4ccccc34)C2)cc1C (stereo not shown) [CBK285848] | 107.322
Nc1nonc1N/N=C/c1ccccc1F [CBK028838] | 46.0283
CCCCNS(=O)(=O)c1ccc(Cl)c(Cl)c1 [CBK044309] | 77.9347
Cn1nc(C2CCN(C(=O)CC3CCCC3)CC2)c2cccnc21 [CBK284943] | 109.034
CCCCc1cc(C[C@@H]2C[C@H](NC(=O)N3CCOCC3)C2(C)C)no1 [CBK289257] | 134.527
O=C(CCc1ccncc1)N1CCCCC1CN1CCCCCC1 (stereo not shown) [CBK282102] | 99.7239
O=C(c1cccs1)N1CCN(Cc2cc(=O)n3ccsc3n2)CC1 [CBK305872] | 75.2424
Cc1ccccc1C(=O)NCC(=O)Nc1ccc2cc(Br)cnc2n1 [CBK063312] | 77.7154
CCN(CC)C(=O)c1ccccc1NS(=O)(=O)c1ccc(F)cc1 [CBK045414] | 116.954
CC(C)(C)OC(=O)N1CCCC(NCc2ccccn2)CC1 (stereo not shown) [CBK305128] | 83.2278
CC1=CCN(C(=O)c2cccc(S(=O)(=O)NCC3CCCO3)c2)CC1 (stereo not shown) [CBK304669] | 89.3197
COc1cc(/C=N/c2ccc3oc(-c4ccc(C(C)(C)C)cc4)nc3c2)ccc1OC(=O)c1ccc(Cl)cc1Cl [CBK261238] | 98.3524
Nc1nc2c(ccn2[C@H]2C[C@@H](O)[C@@H](CO)O2)c(=O)[nH]1 [CBK201238] | 122.343
NC(=O)CN1CCC(Oc2cncc(OCc3ccc(Cl)c(Cl)c3)n2)C1 (stereo not shown) [CBK084429] | 91.5334
Cc1ccc(CN(c2ccc(C(=O)O)cc2)S(C)(=O)=O)cc1 [CBK287203] | 89.2967
CCCN1CCC(CNC(=O)c2cc3ccc(OC)cc3n2C)CC1 [CBK282542] | 129.217
CCCNc1cncc(-c2cccc(CO)c2)n1 [CBK065433] | 113.012
Cc1cc2nc(-c3cc(NC(=O)c4cccc([N+](=O)[O-])c4)ccc3O)oc2cc1C [CBK262855] | 85.7249
NC(=O)COc1ccc(CNC(=O)CN2CCc3sccc3C2)cc1 [CBK306111] | 87.0353
CSc1nc(C)c(CCC(=O)N(C)Cc2c(C)nn(-c3ccccc3)c2C)c(=O)[nH]1 [CBK297925] | 82.0369
Cc1cc(NS(=O)(=O)c2ccc(NC(=O)c3cc4ccccc4o3)cc2)no1 [CBK267597] | 112.709
CS(=O)(=O)Nc1nccnc1N1CCN(Cc2ccc([N+](=O)[O-])cc2)CC1 [CBK084274] | 82.7297
Cc1ccc2nc(SCC(=O)O)nc(C)c2c1 [CBK265996] | 98.3181
CCN(C(=O)Nc1cccnc1Oc1ccc(F)cc1)C1CCOCC1 [CBK306535] | 57.8655

Structure (SMILES) | % of control remaining
O=C(CCS(=O)(=O)c1ccccc1)NCc1ccccc1OC1CCNC1 (stereo not shown) [CBK028296T] | 74.3595
CC(=O)Nc1ccc(N2CC(C(=O)O)CC2=O)cc1 (stereo not shown) [CBK287149] | 97.9148
Cc1ccn(-c2ccc(N3CCC(OC4CCOCC4)CC3)nn2)n1 [CBK306296] | 57.3399
CCC(CN(C)C)C(=O)c1ccccc1 (stereo not shown) [CBK015409C] | 72.7908
CCOC(=O)N1CCN(CC2CCCCN2)CC1 (stereo not shown) [CBK022780G] | 53.4432
O=C(NC(c1ccc(Cl)cc1)c1ccsc1)C1CCN(S(=O)(=O)CC(F)(F)F)CC1 (stereo not shown) [CBK060088] | 72.9877
Cc1ccc2nc(-c3ccccn3)cc(C(=O)NCc3ccccn3)c2c1 [CBK267782] | 112.111
S=C1NC2(CCCCC2)NC12CCCCC2 [CBK006533] | 77.0665
Cc1nc([N+](=O)[O-])c(C(=O)OCc2ccccc2C#N)n1C [CBK293991] | 106.72
CC(Cn1cc(Cl)cn1)C(=O)N1CCN(C)CC1c1ccccc1 (stereo not shown) [CBK282016] | 99.0057
O=C1CN(S(=O)(=O)CCOc2ccccc2)CC(=O)N1CCc1ccccc1 [CBK261134] | 91.8118
CC(C)Nc1cccnc1N(C)C1CCN(C(=O)c2cc(Br)c[nH]2)CC1 [CBK016797] | 63.1294
O=C(C1CC1)N1CCCc2cc(C(O)CN3CCCCC3)ccc21 (stereo not shown) [CBK282135] | 102.127
Cc1ccc(-c2noc(CN(C(=O)c3ccc(Br)o3)C(C)C)n2)cc1 [CBK269440] | 48.0158
COCCn1c(CN2CCOCC2)nc2c1c(=O)[nH]c(=O)n2C [CBK269890] | 85.7869
CN(C)C(=O)c1cc(-c2ccco2)cnc1NS(C)(=O)=O [CBK076490] | 107.287
CC1(C)N=C(c2ccc(Cl)cc2Cl)C(=S)N1 [CBK288449] | 73.4228
Cn1nc(-c2ccc(S(=O)(=O)Nc3cccc(C(=O)O)c3)s2)cc1C(F)(F)F [CBK155080] | 89.6417
O=C1NCCN(C(=O)c2cccc3cccnc23)C1Cc1ccc(-c2cccs2)cc1 (stereo not shown) [CBK285809] | 87.2385
CC1=CC(C)(NC(N)=O)NC(=S)N1 (stereo not shown) [CBK020817] | 28.4547
CCc1cnc(CNC(=O)NCc2nc3cc(C)ccc3n2C)s1 [CBK306261] | 72.3652
C=CCNc1nccnc1-c1cccnc1 [CBK037016] | 115.696
O=C(CC1CCCCC1)N1CCC2(CCCNC2)C1 (stereo not shown) [CBK137154C] | 91.0461
Cc1ccc(N(CC(=O)N/N=C/C(C)C)S(=O)(=O)c2ccccc2)c(C)c1 [CBK262397] | 103.077
Cn1c(=O)n(CC(=O)NC2(C)C3CCC(C3)C2(C)C)c2cccnc21 (stereo not shown) [CBK283330] | 109.13

From publication PMC12040169 (PLOS Biology, 2025)
